{"source": "PubChem BioAssay AID360", "about": "(National Center for Advancing Translational Sciences (NCATS), 2006)", "note": "Hit rate of the full screen: of about 48,000 compounds, about 550 (1.1%) were called active. Another 4% or so got no clear call; they are omitted. Cut-off read from the data, not from the text of the source: active = potency below about 15 µM; inconclusive = mostly about 16 µM to 33 µM; inactive = weaker than that. This is one part of the list. Potency is the fitted concentration of half-maximal effect."}
{"target": "Lysosomal acid glucosylceramidase (Homo sapiens) (UniProt P04062)", "sequence (P04062 whole entry, looked up)": "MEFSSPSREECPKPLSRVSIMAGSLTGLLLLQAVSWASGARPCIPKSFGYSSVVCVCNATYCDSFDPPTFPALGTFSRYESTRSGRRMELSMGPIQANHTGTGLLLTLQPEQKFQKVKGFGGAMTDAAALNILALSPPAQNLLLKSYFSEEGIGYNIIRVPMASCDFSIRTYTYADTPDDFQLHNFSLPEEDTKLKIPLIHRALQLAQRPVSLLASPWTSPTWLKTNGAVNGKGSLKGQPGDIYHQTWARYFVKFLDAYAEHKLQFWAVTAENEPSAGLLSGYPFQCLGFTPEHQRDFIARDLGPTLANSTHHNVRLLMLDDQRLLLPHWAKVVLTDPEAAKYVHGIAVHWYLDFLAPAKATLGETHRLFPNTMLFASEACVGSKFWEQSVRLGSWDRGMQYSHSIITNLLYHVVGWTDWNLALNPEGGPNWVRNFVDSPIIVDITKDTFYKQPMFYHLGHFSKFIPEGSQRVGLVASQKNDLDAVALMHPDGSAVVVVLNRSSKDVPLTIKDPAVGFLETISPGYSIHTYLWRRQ", "assay": "Glucocerebrosidase;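 note: the screen sought inhibitors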", "conditions": "purified enzyme, resorufin glucoside fluorescence (screen aimed at inhibitors), 20 min; series mostly up to 77 µM", "how_it_was_run": "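Wild-type enzyme at 0.2 nM final in 50mM citric acid/KH2PO4, 10mM sodium taurocholate, 0.01% tween-20, pH 5.9, with resorufin beta-D-glucopyranoside at 30 uM final. Compounds titrated, 20 min at RT, red fluorescence read; AC50 from titration.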"}
{"smiles": "Cc1ccc(NC(=O)c2cnn(-c3ccccc3)c2NC(=O)c2ccco2)cc1", "Potency": "inactive: > 76.9 µM"}
{"smiles": "CCC(=O)N1CCc2cc(Br)cc(S(=O)(=O)N3CCCCCC3)c21", "Potency": "inactive: > 76.9 µM"}
{"smiles": "CC(C)Cn1cnc2c1c(=O)n(CC(=O)Nc1ccc3c(c1)OCO3)c(=O)n2Cc1ccccc1", "Potency": "inactive: > 76.9 µM"}
{"smiles": "CC12CN3CC(C)(CN(C1)C31C(=O)N(Cc3ccccc3)c3ccccc31)C2=O", "note": "(configuration not stated)", "Potency": "inactive: > 76.9 µM"}
{"smiles": "Cc1cccc(S(=O)(=O)c2c(N)n(/N=C/c3cccnc3)c3nc4ccccc4nc23)c1", "Potency": "inactive"}
{"smiles": "CCn1c(SCc2ccc(C#N)cc2)nnc1-c1ccc(S(=O)(=O)N2CCCCC2)cc1", "Potency": "inactive: > 76.9 µM"}
{"smiles": "Cc1c(CN2CCCCC2)c(O)n(CCCO)c(=O)c1C#N", "Potency": "inactive: > 76.9 µM"}
{"smiles": "Cc1cc(C(F)F)n2nc(C(=O)NCc3ccccc3F)nc2n1", "Potency": "inactive: > 76.9 µM"}
{"smiles": "COc1ccc2c(c1)C(C)=CC(C)(C)N2C(=O)C(C)N1C(=O)c2ccccc2C1=O", "note": "(configuration not stated)", "Potency": "inactive: > 76.9 µM"}
{"smiles": "O=c1nc2n(c3ccccc13)Cc1ccccc1-2", "Potency": "inactive: > 76.9 µM"}
{"smiles": "Cc1cc(C)n2c(Br)c(CSc3nc4ccccc4o3)nc2n1", "Potency": "inactive: > 76.9 µM"}
{"smiles": "C/C=C/CSc1nc2c(c(=O)[nH]c(=O)n2C)n1C(C)C", "Potency": "inactive: > 76.9 µM"}
{"smiles": "Cc1cc(C)nc(NC2=NCC(=O)N2c2ccc(F)c(Cl)c2)n1", "Potency": "inactive: > 76.9 µM"}
{"smiles": "CCOc1c(OC)cc(C2C(C#N)=C(N)Oc3n[nH]c(-c4ccncc4)c32)cc1OC", "note": "(configuration not stated)", "Potency": "inactive: > 76.9 µM"}
{"smiles": "COc1ccc2cc3cc(C(=O)NCC4CCCO4)oc3nc2c1", "note": "(configuration not stated)", "Potency": "inactive: > 76.9 µM"}
{"smiles": "Cc1ccc(N(CN2CCCC2=O)C(=O)c2ccc(OC(C)C)cc2)cc1", "Potency": "inactive: > 76.9 µM"}
{"smiles": "C=CCSc1n[nH]c(-c2ccc(OCCCC)cc2)n1", "Potency": "inactive: > 76.9 µM"}
{"smiles": "CCOc1cc(C)nc(Oc2ccc(=O)[nH]n2)n1", "Potency": "inactive: > 76.9 µM"}
{"smiles": "Cc1cccn2c(=O)c3cc(C(=O)NCC4CCCO4)c(=N)n(Cc4cccnc4)c3nc12", "note": "(configuration not stated)", "Potency": "inactive: > 76.9 µM"}
{"smiles": "O=C1CSC(c2ccccc2)N1CC12CC3CC(CC(O)(C3)C1)C2", "note": "(configuration not stated)", "Potency": "inactive: > 76.9 µM"}
{"smiles": "Cc1ccnc(N2CCC(C(=O)Nc3ccc4c(c3)OCO4)CC2)n1", "Potency": "inactive: > 76.9 µM"}
{"smiles": "CCN(CC)c1cc(C)c2cc(NC(=O)CNC(C)=O)ccc2n1", "Potency": "inactive: > 76.9 µM"}
{"smiles": "CNC(=O)N(O)C1N(C)C(=O)N(CC(=O)OC)C1(C)C", "note": "(configuration not stated)", "Potency": "inactive: > 76.9 µM"}
{"smiles": "COc1cccc(C2C(C(=O)c3cc4cccc(OC)c4o3)=C(O)C(=O)N2c2cc(C)on2)c1OC", "note": "(configuration not stated)", "Potency": "inactive: > 76.9 µM"}
{"smiles": "C=CCn1c(Cc2cccs2)nnc1SCC(=O)Nc1ccc(OC)c(OC)c1", "Potency": "inactive: > 76.9 µM"}
{"smiles": "CN(C(=O)C1CCOC1)c1nnc(C2CCOC2)s1", "note": "(configuration not stated)", "Potency": "inactive: > 76.9 µM"}
{"smiles": "Cc1cccc(NC(=O)C2CCCN2C(=O)OCC(C)C)c1C", "note": "(configuration not stated)", "Potency": "inactive: > 76.9 µM"}
{"smiles": "COc1ccccc1CN(Cc1cc2cc(C)ccc2[nH]c1=O)Cc1nnnn1CC1CCCO1", "note": "(configuration not stated)", "Potency": "inactive: > 76.9 µM"}
{"smiles": "COc1ccc(OC)c2sc(N3CCCCC3)nc12", "Potency": "inactive: > 76.9 µM"}
{"smiles": "CCCn1c2c(c(O)c(C(=O)Nc3ccccc3)c1=O)CCCC2", "Potency": "inactive: > 76.9 µM"}
{"smiles": "Cc1ccc(-c2csc3nnc(SCC(=O)NCc4ccco4)n23)cc1", "Potency": "inactive: > 76.9 µM"}
{"smiles": "COC(=O)CSc1nnc(-c2ccccc2O)n1-c1ccc(C)cc1", "Potency": "inactive"}
{"smiles": "Cc1c(C(=O)NC(C)c2ccncc2)oc2ccccc12", "note": "(configuration not stated)", "Potency": "inactive: > 76.9 µM"}
{"smiles": "O=C(c1ccc2c(=O)n(Cc3ccc4c(c3)OCO4)c(=S)[nH]c2c1)N1CCCCC1", "Potency": "inactive: > 76.9 µM"}
{"smiles": "COc1ccc(-c2[nH]ncc2-c2ccc3c(c2)OCCO3)c(O)c1", "Potency": "inactive: > 76.9 µM"}
{"smiles": "CCCCOc1ncnc2c1[nH]c1ccccc12", "Potency": "inactive: > 76.9 µM"}
{"smiles": "O=C(c1ccc(=O)n(Cc2ccccc2)n1)N1CCN(C/C=C/c2ccccc2)CC1", "Potency": "inactive: > 76.9 µM"}
{"smiles": "Cc1csc(SCCn2c(N3CCN(c4ccccc4)CC3)nc3c2c(=O)[nH]c(=O)n3C)n1", "Potency": "inactive: > 76.9 µM"}
{"smiles": "CCCC(C(=O)NC1CCCC1)N(Cc1cccs1)C(=O)c1snc(C(N)=O)c1N", "note": "(configuration not stated)", "Potency": "inactive: > 76.9 µM"}
{"smiles": "O=C(c1nc2n(n1)C(c1ccc(Cl)cc1)C=C(c1ccccc1)N2)N1CCOCC1", "note": "(configuration not stated)", "Potency": "inactive: > 76.9 µM"}
{"smiles": "c1cncc(-c2nc(-c3ccco3)cs2)c1", "Potency": "inactive: > 76.9 µM"}
{"smiles": "Cc1noc(C)c1C(=O)NCCCN1CCCC1=O", "Potency": "inactive: > 76.9 µM"}
{"smiles": "CN(C)c1cccc(C(=O)Nc2cccc(F)c2)c1", "Potency": "inactive: > 76.9 µM"}
{"smiles": "COc1cc(C(=O)N2CCN(c3ncnc4sc(C)c(C)c34)CC2)cc(OC)c1OC", "Potency": "inactive: > 76.9 µM"}
{"smiles": "Cc1cccc2cc(CN(CC3CCCO3)C(=O)NC3CCCCC3)c(=O)[nH]c12", "note": "(configuration not stated)", "Potency": "inactive: > 76.9 µM"}
{"smiles": "COc1ccc(N2CCN(Cc3nc4ccccc4c(=O)[nH]3)CC2)cc1", "Potency": "inactive: > 76.9 µM"}
{"smiles": "Cc1ccc(Cn2c(Sc3nccc(C)n3)nc3c2c(=O)[nH]c(=O)n3C)cc1", "Potency": "inactive: > 76.9 µM"}
{"smiles": "COc1ccc(C(=O)COC(=O)CN2CC(=O)Oc3ccccc32)cc1Br", "Potency": "inactive: > 76.9 µM"}
{"smiles": "CC1=CCC(Cc2nc3ccccc3o2)C1(C)C", "note": "(configuration not stated)", "Potency": "inactive: > 76.9 µM"}
{"smiles": "O=C(Nc1cccc(Cl)c1)N(CCCN1CCOCC1)Cc1ccccc1F", "Potency": "active: 11.4 µM"}
{"smiles": "Cc1ccc(N=Cc2c(O)n(C)c(=O)n(C)c2=O)nc1", "Potency": "inactive: > 76.9 µM"}
{"smiles": "COc1ccc(OCC(=O)N2CCN(C(=O)Cc3ccccc3)CC2)cc1", "Potency": "inactive: > 76.9 µM"}
{"smiles": "Fc1ccc(CSc2nncn2NCc2ccc3c(c2)OCO3)cc1", "Potency": "inactive: > 76.9 µM"}
{"smiles": "Cc1ccccc1N1CCN(C(=O)C2CCCCC2)CC1", "Potency": "inactive: > 76.9 µM"}
{"smiles": "OC(COc1ccc(Cl)cc1)CN1CCCCC1", "note": "(configuration not stated)", "Potency": "inactive: > 76.9 µM"}
{"smiles": "CC1CCN(S(=O)(=O)c2ccc(NC(=O)CN3CCN(C)CC3)cc2)CC1", "Potency": "inactive: > 76.9 µM"}
{"smiles": "Cc1ccc(Cn2nnc3c(=O)[nH]c(C4CCN(S(=O)(=O)c5ccc(C)cc5)CC4)nc32)cc1", "Potency": "active: 13.9 µM"}
